{"source": "paper PMC4336329", "about": "(PLoS ONE, 2015)", "note": "Screen size: about 310,000 compounds; about 14,000 (4.5%) showed an effect of 50% or more. Effects have a minus sign here. Some of the results follow.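 Also: peak tail current of the secondary pulse compared with the same well before compound.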", "data": [{"molecular_target": "human ether-à-go-go-related gene (hERG) potassium channel (human, UniProt Q12809)", "sequence (Q12809 whole entry, looked up)": "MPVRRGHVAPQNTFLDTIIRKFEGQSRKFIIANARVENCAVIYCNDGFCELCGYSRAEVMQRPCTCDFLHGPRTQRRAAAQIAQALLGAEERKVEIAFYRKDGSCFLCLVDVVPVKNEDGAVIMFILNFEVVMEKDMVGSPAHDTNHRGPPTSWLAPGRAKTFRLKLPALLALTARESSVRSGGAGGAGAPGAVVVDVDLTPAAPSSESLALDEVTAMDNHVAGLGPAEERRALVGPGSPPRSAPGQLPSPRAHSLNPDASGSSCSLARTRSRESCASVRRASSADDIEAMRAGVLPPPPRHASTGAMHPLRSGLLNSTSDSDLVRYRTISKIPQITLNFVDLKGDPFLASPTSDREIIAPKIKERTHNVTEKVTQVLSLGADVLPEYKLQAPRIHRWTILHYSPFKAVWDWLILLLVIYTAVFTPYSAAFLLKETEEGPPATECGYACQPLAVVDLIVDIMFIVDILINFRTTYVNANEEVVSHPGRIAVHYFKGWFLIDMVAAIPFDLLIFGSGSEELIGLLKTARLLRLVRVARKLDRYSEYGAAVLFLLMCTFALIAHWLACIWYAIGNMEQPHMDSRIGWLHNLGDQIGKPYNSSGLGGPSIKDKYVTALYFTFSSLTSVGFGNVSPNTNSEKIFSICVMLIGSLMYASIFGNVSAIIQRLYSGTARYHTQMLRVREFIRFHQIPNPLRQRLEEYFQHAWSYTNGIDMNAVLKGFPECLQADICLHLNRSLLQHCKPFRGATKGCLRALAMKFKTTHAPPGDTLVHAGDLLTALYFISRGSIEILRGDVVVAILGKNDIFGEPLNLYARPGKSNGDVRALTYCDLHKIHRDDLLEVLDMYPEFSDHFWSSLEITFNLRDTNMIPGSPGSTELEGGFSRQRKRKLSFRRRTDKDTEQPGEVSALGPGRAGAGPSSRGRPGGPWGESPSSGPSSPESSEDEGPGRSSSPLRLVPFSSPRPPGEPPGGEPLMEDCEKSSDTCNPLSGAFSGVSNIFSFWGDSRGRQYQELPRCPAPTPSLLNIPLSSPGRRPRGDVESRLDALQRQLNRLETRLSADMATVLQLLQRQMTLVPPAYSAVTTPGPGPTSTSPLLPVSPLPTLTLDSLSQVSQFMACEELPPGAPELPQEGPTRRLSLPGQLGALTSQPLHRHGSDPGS", "assay": "primary screen, population patch clamp on CHO cells stably expressing hERG", "units": {"hERG current change (%, negative = inhibition) at 10uM": "%"}, "values": [{"smiles": "COc1ccccc1-c1noc(CCC(=O)Nc2cccc(C(F)(F)F)c2)n1", "hERG current change (%, negative = inhibition) at 10uM": -25.1}, {"smiles": "CCC1CCCCN1CCCNC(=O)CCCOc1cc(=O)n(C)c2ccccc12", "note": "(stereo not drawn)", "hERG current change (%, negative = inhibition) at 10uM": -6.83}, {"smiles": "Br.Cc1nc(C)c(-c2csc(Nc3ccc(N)cc3)n2)s1", "hERG current change (%, negative = inhibition) at 10uM": -0.808}, {"smiles": "CS(=O)(=O)Nc1ccccc1C(=O)NCCSc1ccc(Cl)cc1", "hERG current change (%, negative = inhibition) at 10uM": 2.62}, {"smiles": "O=C(NC1CCN(Cc2ccc(Cl)c(Cl)c2)CC1)c1ccccc1", "hERG current change (%, negative = inhibition) at 10uM": -18.3}, {"smiles": "N/N=C(/Cc1nc2ccccc2[nH]1)c1ccc([N+](=O)[O-])cc1", "hERG current change (%, negative = inhibition) at 10uM": -41.3}, {"smiles": "COCc1[nH][nH]c(=O)c1C=Nc1ccccc1", "hERG current change (%, negative = inhibition) at 10uM": 12.9}, {"smiles": "CCOc1ccc(N2CC(C(=O)Nc3cccnc3)CC2=O)cc1", "note": "(stereo not drawn)", "hERG current change (%, negative = inhibition) at 10uM": -8.23}, {"smiles": "CCCCCn1c(CNC(C)=O)nc2ccccc21", "hERG current change (%, negative = inhibition) at 10uM": 0.766}, {"smiles": "Cc1ccc(CN2C(=O)C(C)Nc3ncnc(N4CCN(c5ccccn5)CC4)c32)cc1.O=C(O)C(F)(F)F", "note": "(stereo not drawn)", "hERG current change (%, negative = inhibition) at 10uM": -56.1}, {"smiles": "O=C(CSc1nnc(-c2ccco2)n1Cc1ccco1)NCc1cccs1", "hERG current change (%, negative = inhibition) at 10uM": -33.1}, {"smiles": "COc1ccc(NC(=O)NCc2ccco2)c(OC)c1", "hERG current change (%, negative = inhibition) at 10uM": 15.2}, {"smiles": "N#Cc1c2n(c3c(=O)n(Cc4ccccc4)cnc13)CCCC2", "hERG current change (%, negative = inhibition) at 10uM": -39.4}, {"smiles": "CCOc1ccc(-n2c(Cc3cc(=O)[nH]c(=O)[nH]3)nnc2SCC)cc1", "hERG current change (%, negative = inhibition) at 10uM": -0.0826}, {"smiles": "CN(Cc1ccccc1)c1cc(Cl)nc(N)n1", "hERG current change (%, negative = inhibition) at 10uM": -1.61}, {"smiles": "O=[N+]([O-])c1ccc2nc(-c3ccccc3)cc(-c3ccccc3)c2c1", "hERG current change (%, negative = inhibition) at 10uM": 8.85}, {"smiles": "CN(C)S(=O)(=O)c1ccc(C(=O)Nc2nnc(-c3ccco3)o2)cc1", "hERG current change (%, negative = inhibition) at 10uM": 12.4}, {"smiles": "CCOC(=O)CC(=O)CSc1nc2c(sc(=S)n2-c2ccc(OCC)cc2)c(=O)[nH]1", "hERG current change (%, negative = inhibition) at 10uM": -3.5}, {"smiles": "CCN(CC(=O)Nc1ccc2c(c1)OCCO2)CC(=O)Nc1cc(C)on1", "hERG current change (%, negative = inhibition) at 10uM": 14.1}, {"smiles": "O=C(NCC1COc2ccccc2O1)C1(c2ccccc2)CCCC1", "note": "(stereo not drawn)", "hERG current change (%, negative = inhibition) at 10uM": -28.2}, {"smiles": "COc1ccc(-c2nc(NC(=O)c3cc(C(C)(C)C)nn3C)sc2C)cc1", "hERG current change (%, negative = inhibition) at 10uM": 2.69}, {"smiles": "O=C(O)C1CCC(=O)N1Cc1ccccc1Cl", "note": "(stereo not drawn)", "hERG current change (%, negative = inhibition) at 10uM": 3.11}, {"smiles": "CCOc1ccccc1CN1CCN(S(C)(=O)=O)CC1.O=C(O)C(=O)O", "hERG current change (%, negative = inhibition) at 10uM": -4.39}, {"smiles": "CC[C@H](C)[C@H](NC(=O)OCc1ccccc1)C(=O)OCC(=O)Nc1ccc(N2CCOCC2)cc1", "hERG current change (%, negative = inhibition) at 10uM": 10.7}, {"smiles": "COc1ccc(N2CCN(C(=O)c3ccc(CSc4ccccc4)cc3)CC2)cc1", "hERG current change (%, negative = inhibition) at 10uM": 17.1}, {"smiles": "CCOC(=O)CSc1nc(Cc2ccccc2)nc2ccccc12", "hERG current change (%, negative = inhibition) at 10uM": -4.23}, {"smiles": "COc1ccc(-c2csc(C3=C(O)CN(C(C)C)C3=N)n2)cc1OC", "hERG current change (%, negative = inhibition) at 10uM": -8.67}, {"smiles": "O=C(NC1CCCCCC1)C1c2ccccc2C(=O)N1CCCN1CCOCC1", "note": "(stereo not drawn)", "hERG current change (%, negative = inhibition) at 10uM": -13}, {"smiles": "CCOC(=O)N1CCN(C(=O)CSc2ccc3nnc(-c4ccccn4)n3n2)CC1", "hERG current change (%, negative = inhibition) at 10uM": -36}, {"smiles": "CCOC(=O)c1oc2nc(C)c3c(c2c1N)CC(C)(C)OC3", "hERG current change (%, negative = inhibition) at 10uM": 16.1}, {"smiles": "CC(=O)CC(C)(C)Nc1nc2ccc([N+](=O)[O-])cc2o1", "hERG current change (%, negative = inhibition) at 10uM": -3.22}, {"smiles": "CN(C)CCCNC(=O)/C(=C\\c1ccc(-c2ccc(Br)cc2)o1)NC(=O)c1ccccc1", "hERG current change (%, negative = inhibition) at 10uM": -75.1}, {"smiles": "Cc1cc(=O)[nH]c(-c2ccc(Cl)cc2)n1", "hERG current change (%, negative = inhibition) at 10uM": 6.84}, {"smiles": "O=C(Nc1ccc(-n2cccn2)cc1)C1CCCCN1Cc1cccc2c1OCO2", "note": "(stereo not drawn)", "hERG current change (%, negative = inhibition) at 10uM": -49.5}, {"smiles": "CCC(C)[C@H](NC(=O)NCCCn1ccnc1)C(=O)OC", "note": "(stereo partly drawn)", "hERG current change (%, negative = inhibition) at 10uM": -1.53}, {"smiles": "CC(=O)N/C(=C\\c1ccccc1)C(=O)OCc1cccc(S(=O)(=O)N(C)C)c1", "hERG current change (%, negative = inhibition) at 10uM": -13.9}, {"smiles": "CCOc1ccccc1NC(=O)c1cccc2c1C(=O)N(C1CCCCC1)C2", "hERG current change (%, negative = inhibition) at 10uM": 9.57}, {"smiles": "CCN1CCN(c2ccc(S(=O)(=O)N3CCOCC3)cc2NC(=O)c2ccc(Cl)s2)CC1", "hERG current change (%, negative = inhibition) at 10uM": -57.1}, {"smiles": "CN(C)c1nc(SCc2ccccc2)nc(N2CCOCC2)n1", "hERG current change (%, negative = inhibition) at 10uM": -4.83}, {"smiles": "Cc1ccc(S(=O)(=O)NNC2CC(=O)N(c3ccc(Br)cc3)C2=O)cc1", "note": "(stereo not drawn)", "hERG current change (%, negative = inhibition) at 10uM": 23.7}, {"smiles": "COc1ccc(C)cc1N(CC(=O)N/N=C/c1ccc2c(c1)OCO2)S(C)(=O)=O", "hERG current change (%, negative = inhibition) at 10uM": 6.53}, {"smiles": "O=C(CCC(=O)c1ccc(F)cc1)NC1CCCN(Cc2ccccc2F)C1", "note": "(stereo not drawn)", "hERG current change (%, negative = inhibition) at 10uM": -19.4}, {"smiles": "O=C(COC(=O)CNC(=O)C1CCCCC1)Nc1ccc(Cl)cn1", "hERG current change (%, negative = inhibition) at 10uM": -10.2}, {"smiles": "O=C1NCCN1C(=O)N(c1ccccc1)c1ccccc1", "hERG current change (%, negative = inhibition) at 10uM": -0.646}, {"smiles": "CCCS(=O)(=O)N1CCN(Cc2ccc(OCc3ccccc3)c(OC)c2)CC1.O=C(O)C(=O)O", "hERG current change (%, negative = inhibition) at 10uM": -43.2}, {"smiles": "CCN1C(c2ccc(F)cc2)=CS/C1=C(\\C#N)c1nnc2n1-c1ccccc1SC2", "hERG current change (%, negative = inhibition) at 10uM": -58.9}, {"smiles": "CSC(=S)N/N=C/c1ccc(Br)cc1", "hERG current change (%, negative = inhibition) at 10uM": 19.9}, {"smiles": "Cc1ccc(Cn2ccsc2=NC(=O)COC(=O)C(C)C)cc1", "hERG current change (%, negative = inhibition) at 10uM": -15.3}, {"smiles": "CC(C)(C)c1csc(NC(=O)c2ccc(Cl)s2)n1", "hERG current change (%, negative = inhibition) at 10uM": 5.11}, {"smiles": "CC(=O)Oc1ccc(N(C(C)=O)S(=O)(=O)c2ccc3ccccc3c2)cc1", "hERG current change (%, negative = inhibition) at 10uM": 17.9}, {"smiles": "CCc1nnc(NC(=O)Nc2ccc(Cl)cc2)s1", "hERG current change (%, negative = inhibition) at 10uM": 16.7}, {"smiles": "CCOC(=O)CCCCC(=O)c1[nH]c(=O)[nH]c1C[n+]1ccc(C)cc1.[Cl-]", "hERG current change (%, negative = inhibition) at 10uM": 17.5}, {"smiles": "Cc1cc(N=Nc2ccccc2C(=O)O)c(C)c(C)c1O", "hERG current change (%, negative = inhibition) at 10uM": 26.4}, {"smiles": "CN(C)S(=O)(=O)c1ccc(NC=C(C#N)C#N)cc1", "hERG current change (%, negative = inhibition) at 10uM": 6.95}, {"smiles": "O=C(O)C1C2C=CC(C3CC23)C1C(=O)O", "note": "(stereo not drawn)", "hERG current change (%, negative = inhibition) at 10uM": 10.6}, {"smiles": "O=Cc1ccc(OCc2ccccn2)cc1", "hERG current change (%, negative = inhibition) at 10uM": 10.1}, {"smiles": "CCCCOc1ccc(C(=O)N/C(=C/C=C/c2ccccc2)C(=O)NCCCO)cc1", "hERG current change (%, negative = inhibition) at 10uM": -28.7}]}]}
